PubChem BioAssay AID485344 (National Center for Advancing Translational Sciences (NCATS), 2010)
Hit rate of the full screen: of about 340,000 compounds, about 6,900 (2%) were called active. Rule as the data show it: active = inhibition above about 30%; inactive = below that, where a call was filed. The list shows a part of the results, in another mix than the full data. The source gives no active or inactive call for entries shown without one.
Also: 0% is about no effect.

What follows are compounds tested against D(2) dopamine receptor (Homo sapiens) (UniProt P14416) (assay: HTS Assay for Allosteric Antagonists of the Human D2 Dopamine Receptor: Primary Screen for Antagonists). Conditions: HEK293 TREx D2 cells, calcium flux, dopamine EC80; at 10 µM; stronger effect = higher value.
Sequence of UniProt P14416 (P14416 whole entry, looked up): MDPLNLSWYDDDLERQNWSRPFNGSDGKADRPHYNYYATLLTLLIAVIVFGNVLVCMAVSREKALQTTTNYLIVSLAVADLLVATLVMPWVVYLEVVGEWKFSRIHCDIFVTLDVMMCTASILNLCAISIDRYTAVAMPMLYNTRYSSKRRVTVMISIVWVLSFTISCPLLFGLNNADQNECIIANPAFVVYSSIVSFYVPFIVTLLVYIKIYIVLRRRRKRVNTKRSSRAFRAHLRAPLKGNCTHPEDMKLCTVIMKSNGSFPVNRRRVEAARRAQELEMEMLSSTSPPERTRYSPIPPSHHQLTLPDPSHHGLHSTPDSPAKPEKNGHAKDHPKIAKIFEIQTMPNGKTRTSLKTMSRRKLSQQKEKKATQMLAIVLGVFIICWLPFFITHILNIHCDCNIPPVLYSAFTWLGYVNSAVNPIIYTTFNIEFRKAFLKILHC
Method in brief: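 Compounds are added to dye-loaded, induced HEK293 T-REx cells coupled to calcium release via D2; after a 3 min kinetic read an EC80 dopamine stimulus is given and fluorescence is recorded for 3 more min.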
`Cc1ccc(-n2c(=O)c3ccc(C(=O)NCc4ccco4)cc3n(Cc3ccccc3Cl)c2=O)cc1` gave an inhibition of -9.01%. Work on `Brc1cccc(-c2nnn3c2nc(NC2CCCCC2)c2ccccc23)c1` yielded an inhibition of -28.5%. With `COCCNC(=O)CSc1c(C)cnc2c1c(=O)n(C)c(=O)n2C` the inhibition was 21.5%. `Cc1ccc(NC(=O)Cn2cnc3c(oc4ccccc43)c2=O)cc1Cl` showed an inhibition of 1.06%. `CCCn1c2ccccc2c2cnn(CC(=O)NCCc3ccc(S(N)(=O)=O)cc3)c(=O)c21` was tested, and the inhibition was 4.55%. `Cn1c(NCc2cccc(Cl)c2)nc2ccccc21` gave an inhibition of -7.37%. `COc1cc(OC)c(NC(=O)C2=C(C)C(=O)OC23CCN(C(C)=O)CC3)cc1Cl` was tested, and the inhibition was -17.9%. Compound `O=C(NCc1ccccc1)c1cccn1-c1nnc(N2CCCCC2)s1` has an inhibition of 3.05%. `Cc1ccc(CSc2nc3cccnc3n2Cc2ccc(C(=O)NC3CC3)cc2)cc1` was tested, and the inhibition was 4.63%. Work on `Cc1ccc(-n2ncc3c(=O)n(Cc4cccc(Cl)c4)cnc32)cc1C` yielded an inhibition of -0.6%. In the case of `CN(CCN1CCc2ccccc2C1)Cc1nc(Cc2ccccc2F)no1`, the inhibition is reported as active: 41%. For `COc1ccc(C(CNC(=O)C(C)Oc2ccc(Br)cc2)N2CCCCC2)cc1` (stereo not drawn), the inhibition was active: 78.1%. Work on `COc1ccc(Cn2c(C(=O)O)c(CNCc3ccco3)c3ccc(C)cc32)cc1` yielded an inhibition of 5.37%. `CCOc1ccccc1CNC(=O)c1cnn(-c2ccc(C)cc2)c1-n1cccc1` was tested, and the inhibition was 6.19%. For `Cc1nn(CCC(=O)Nc2ccc(Cl)cc2)c(C)c1S(=O)(=O)N1CCCCC1`, the inhibition was -22.1%. For `Cc1cc(-c2ccc(C)c(S(=O)(=O)NCCCN3CCN(c4ccccc4F)CC3)c2)on1`, the inhibition was active: 76%. With `COc1ccc(-c2cc(C(=O)Nc3cc(C(F)(F)F)ccc3Cl)no2)cc1` the inhibition was -1.54%. Work on `COc1ccccc1Cn1cc(C(=O)c2ccccc2)c(=O)c2cc(OC)c(OC)cc21` yielded an inhibition of 27%. `CCc1ccc(NC(=S)NC2CCN(Cc3ccccc3)CC2)cc1` was tested, and the inhibition was active: 98.2%. `CN(C)c1ccc(CNC(=O)C2CCN(c3nnc(-n4cccc4)s3)CC2)cc1` was tested, and the inhibition was 6.66%. Work on `CCOc1ccc(C(=O)Nc2ccc(-c3cc4ccccc4oc3=O)cc2)cc1Br` yielded an inhibition of -15.5%. `Cc1ccc(Cn2c(CO)cnc2SCc2ccc(F)cc2)cc1` showed an inhibition of 20.6%. `Cc1ccc([N+](=O)[O-])cc1Nc1nc(N2CCCC2)nc(N2CCCC2)n1` was tested, and the inhibition was active: 34.5%. In the case of `O=C(Nc1ccc(Cl)cc1Cl)c1cc(S(=O)(=O)NCc2ccc3c(c2)OCO3)ccc1F`, the inhibition is reported as 4.9%. Work on `Cc1ccccc1NC(=O)c1cc2c([nH]c1=O)CC(C)(C)CC2=O` yielded an inhibition of -12.3%. `Cc1nc2c3ccccc3nc(NNC(=O)CCC(=O)O)n2n1` gave an inhibition of -5.36%. Compound `Cc1ccc(NC(=O)CN2C(=O)CCSc3ccccc32)c(C)c1` has an inhibition of 0.488%. Compound `COc1ccc(CCNC(=O)c2ccc3c(c2)nc(C)n3-c2ccc(Br)cc2)cc1OC` has an inhibition of -3.68%. `CN(C1CCCCC1)S(=O)(=O)c1ccc2c(c1)c(=O)c(C(=O)N1CCN(c3ccccc3)CC1)cn2C` gave an inhibition of 3.29%. With `O=C(O)c1ccc(NC(=O)c2ccc(Cl)c(S(=O)(=O)N3CCCCCC3)c2)cc1` the inhibition was 3.8%. `O=C(COC(=O)CCc1c[nH]c(=O)[nH]1)Nc1cccc(Cl)c1` was tested, and the inhibition was active: 35%. `O=S(=O)(NCCS(=O)(=O)N1CCN(c2ccccc2)CC1)c1ccccc1` showed an inhibition of -1.17%. Compound `Cc1ccc(NC(=O)CN2C(=O)C(c3ccccc3)=NC23CCCCC3)cc1C` has an inhibition of -17.9%. `CCc1ccc2occ(CC(=O)N(Cc3ccccc3)C3CCS(=O)(=O)C3)c2c1` (stereo not drawn) was tested, and the inhibition was -4.91%. For `COc1ccc(-n2c(C)nc3c(cnn3-c3ccc(C)c(C)c3)c2=O)cc1Cl`, the inhibition was -3.56%. Work on `CCS(=O)(=O)N1CCCc2cc(C(=O)Nc3cc([N+](=O)[O-])ccc3C)ccc21` yielded an inhibition of 20.9%. In the case of `Cc1ccc(C)c(C(=O)N(Cc2nc(-c3ccc(Cl)cc3)no2)C(C)C)c1`, the inhibition is reported as active: 39.9%. Compound `CCc1ccc(S(=O)(=O)c2nnn3c2nc(N(C)Cc2ccccc2)c2cc(Cl)ccc23)cc1` has an inhibition of 15.4%. Work on `COc1cccc(CNC(=O)Cn2c(=O)ccc3cc(S(=O)(=O)N4CCCC4)ccc32)c1` yielded an inhibition of -0.557%. With `O=C(NCCc1ccc(Cl)cc1)C1CCN(c2ncccn2)CC1` the inhibition was active: 60.9%. With `Cc1cc(=O)n(CC(=O)N2CCCCC2)c2c1c(C)nn2C` the inhibition was 4.87%. In the case of `CCN(CC)CCCNC(=O)c1cn(CC)c2ccc(S(=O)(=O)N3CCC(C)CC3)cc2c1=O`, the inhibition is reported as 2.3%. `CSc1cccc(-n2nnc(-c3nsc(NC(=O)c4cccs4)n3)c2C)c1` gave an inhibition of 13.2%. `COc1ccc(Br)cc1CNC(=O)Cn1nc(C)n2c(cc3cc(F)ccc32)c1=O` gave an inhibition of 10.2%. With `CCOC(=O)c1ccccc1NC(=O)CSc1nc(=O)[nH]c2c1CCCC2` the inhibition was -24.3%. Work on `COc1cc(OC)cc(C(=O)Nc2nc(-c3nnn(-c4ccc(C)cc4)c3C)ns2)c1` yielded an inhibition of 17%. For `CCOC(=O)C1=C(CN2CCC(C)CC2)NC(=O)NC1c1ccc(OC(C)C)cc1` (stereo not drawn), the inhibition was 7.62%. `COc1cc(/C=C(/C#N)c2nc(-c3cc4ccccc4oc3=O)cs2)ccc1O` showed an inhibition of -9.21%. For `Cc1cccc(NC(=O)CSc2nc3c([nH]c4ccccc43)c(=O)n2-c2cc(C)cc(C)c2)c1`, the inhibition was -16.9%. Work on `Cc1c(Cl)cccc1NC(=O)Nc1c[nH]c(=O)[nH]c1=O` yielded an inhibition of 2.72%. In the case of `O=C(COC(=O)c1ccccc1Cl)NC1CCCCCCC1`, the inhibition is reported as active: 40.2%. `CC1CCCCN1C(=O)CSc1nc(-c2ccccc2)no1` (stereo not drawn) gave an inhibition of 2.77%. `CS(=O)(=O)c1ccc2nc(NC(=O)CN3CCN(Cc4ccccc4)CC3)sc2c1` was tested, and the inhibition was active: 44.5%. Compound `O=C(CSc1nccn1Cc1ccc2c(c1)OCO2)Nc1ccccc1F` has an inhibition of -16.1%. `CCCn1c(=O)sc2cc(NC(=O)c3ccccc3Cl)ccc21` showed an inhibition of 9.28%. Compound `COc1cc(NC(=O)CCn2nc(C)cc2C)cc(OC)c1OC` has an inhibition of -5.44%. With `CCC1CCCCN1CCCNC(=O)c1cn(C)c2ccc(S(=O)(=O)N(C)C3CCCCC3)cc2c1=O` (stereo not drawn) the inhibition was -23.5%. Work on `COc1ccc(-c2cc(C(=O)Nc3ccc4c(c3)OCO4)no2)cc1` yielded an inhibition of 15%. Compound `COc1cccc(N2CCN(C(=O)c3cccn3-c3nnc(N4CCCCC4)s3)CC2)c1` has an inhibition of 8.58%. `CCSc1ccccc1C(=O)N1CCN(c2nc3ccccc3s2)CC1` showed an inhibition of 16.7%. Work on `Cc1ccc(C)c(NC(=O)CSc2nc3ccccc3nc2N2CCOCC2)c1` yielded an inhibition of 2.65%. In the case of `CC(C)(C)OC(=O)N1CCC(c2c(C(=O)N3CCCCC3)cnn2-c2ccc(F)cc2)CC1`, the inhibition is reported as 19.5%. With `COc1cccc(NC(=O)c2oc3ccc(S(=O)(=O)N(C)C4CCCCC4)cc3c2C)c1` the inhibition was 12.8%.
